Experimental data as given in ChEMBL document CHEMBL1201862, “PubChem BioAssay data set” (2004).
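Grown in 96-well plates, cells were treated for 48 hours with each compound at five concentrations. Insufficient inhibition: endpoint recorded as highest concentration tested. GI50 = concentration required for 50% inhibition of growth.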 The source made the active and inactive calls. Rule as the data show it: active = GI50 up to about 1.1 µM and inactive = higher.

These molecules were tested on NCI-H322M (assay: inhibition of tumour cell growth, NCI panel, 48 h).
`O=[N+]([O-])c1ccc(-n2nc3ccc4c(no[n+]4[O-])c3n2)cc1` was tested, and the GI50 was inactive: 19.1 µM. `CN(C)CCCNc1cc(O)c2c(c1O)C(=O)c1ccccc1C2=O` was tested, and the GI50 was inactive: 11.6 µM. For `N=C(N)SCc1ccc(Cl)cc1Cl.O=[N+]([O-])c1c(O)c(Cl)cc(Cl)c1Cl`, the GI50 was inactive: 22.1 µM. For `Cc1cc(Cc2cc(C)c(N)cc2N)c(N)cc1N`, the GI50 was inactive: 36.6 µM. `Cc1cc(Cc2cc(C)cc(C(C)(C)C)c2O)c(O)c(Cc2cc(C)cc(C(C)(C)C)c2O)c1` was tested, and the GI50 was inactive: 3.06 µM. With `O=C(O)CC1OCC=C2CN3CCC45c6ccccc6NC4C1C2CC35` (centres undefined) the GI50 was inactive: > 100 µM. `O=S(=O)(c1cc(Cl)ccc1Cl)n1ccnc1` was tested, and the GI50 was inactive: 35.3 µM. `Cc1ccc2nc(CC(=O)c3ccc4ccccc4c3)c(O)nc2c1` was tested, and the GI50 was inactive: > 100 µM. For `Nc1nc(SCC(=O)c2ccc(Br)cc2)c2nc[nH]c2n1`, the GI50 was inactive: 78 µM. With `c1ccc(CNc2c3c(nc4ccccc24)CCC3)cc1` the GI50 was inactive: 14.2 µM. With `CN(C)CCn1c(=O)c2ccc(NCCCN(C)CCCNc3ccc4c(=O)n(CCN(C)C)c(=O)n5c6ccccc6c(=O)c3c45)c3c(=O)c4ccccc4n(c1=O)c23` the GI50 was active: < 0.01 µM. In the case of `C[n+]1c2ccccc2c(NC(CCC(N)=O)C(=O)O)c2ccccc21` (centres undefined), the GI50 is reported as inactive: > 100 µM. `O=C(c1no[n+]([O-])c1C(=O)c1csc2ccccc12)c1csc2ccccc12` was tested, and the GI50 was inactive: 16.7 µM. `C1OC1C1CO1` (centres undefined) was tested, and the GI50 was inactive: > 100 µM. With `O=c1[nH]c(=O)c2ncn(-c3ccc([N+](=O)[O-])cn3)c2[nH]1` the GI50 was inactive: > 100 µM. `CC/C(Cl)=N\OC(=O)Nc1ccc(C#N)cc1` was tested, and the GI50 was inactive: 17.4 µM. In the case of `Cc1ccc(OCC2CO2)c(Br)c1` (centres undefined), the GI50 is reported as inactive: 81.5 µM. In the case of `O=C(N/N=C1/C(=O)c2c3ccccc3cc3cccc1c23)c1cccc(Cl)c1`, the GI50 is reported as inactive: > 100 µM. `CC1=NN(C(=O)CC(=O)Nc2cccc(Cl)c2)C(=O)C1/N=N/c1ccc(S(N)(=O)=O)cc1` (centres undefined) was tested, and the GI50 was inactive: > 100 µM. In the case of `CC(=O)NC(CCCNC(=O)OCc1ccccc1)C(=O)NCc1ccccc1` (centres undefined), the GI50 is reported as inactive: > 100 µM. `CC[P+](c1ccccc1)(N(C)C)N(C)C` was tested, and the GI50 was inactive: > 100 µM. With `NC1C2(CCCCCC2)NC(=O)C12CCCCCC2` (centres undefined) the GI50 was inactive: > 100 µM. `CC(=O)O/C(=C1\C[C@H]2[C@@H]3CC=C4C[C@@H](OC(C)=O)CC[C@]4(C)[C@H]3CC[C@]2(C)C1=O)C(F)(F)F` was tested, and the GI50 was inactive: 17.8 µM. `COC(=O)[C@H]1C=C[C@@H](C)n2c(=O)c3cc4ccccc4cc3c(=O)n21` was tested, and the GI50 was inactive: > 100 µM. `C[Si](C)(C)C#C[I+]c1ccccc1` was tested, and the GI50 was inactive: > 100 µM. For `Cn1c(=O)n(CC2CS2)c2ccccc21` (centres undefined), the GI50 was inactive: > 100 µM. For `c1ccc(/C(=N/Nc2ccncn2)c2ccccn2)cc1`, the GI50 was inactive: 33.6 µM. For `O=C1c2c(Br)sc(Br)c2[C@@H](Cl)[C@H]1Cl`, the GI50 was inactive: 19.1 µM. With `O=C(Nc1cc2c(=O)oc3ccccc3c2oc1=O)c1cccnc1` the GI50 was inactive: > 100 µM. In the case of `O=C(/C=C/c1ccc(OCC(=O)N2CCN(c3ccccc3)CC2)cc1)c1ccc(Cl)cc1`, the GI50 is reported as inactive: > 100 µM. For `CCc1ccc(CCC(=O)O)nc1`, the GI50 was inactive: > 100 µM. With `COC(=O)C(/C(=N\O)C(=O)Nc1ccc(Br)cc1)c1nc2ccccc2nc1O` (centres undefined) the GI50 was inactive: > 100 µM. `COc1cc(/C=C/C(C)=O)ccc1OP(=O)(O)O` was tested, and the GI50 was inactive: > 100 µM. `O=c1c2ccccc2c(=O)n2n1CC=CC2` was tested, and the GI50 was inactive: > 100 µM. `N#CCCOCN(CO)c1nc(N(CO)COCCC#N)nc(N(CO)COCCC#N)n1` was tested, and the GI50 was inactive: 40.5 µM. `O=C(n1[nH]c(=O)n(-c2ccc([N+](=O)[O-])cc2)c1=O)C(Cl)(Cl)Cl` was tested, and the GI50 was inactive: > 75 µM. In the case of `c1ccc2c(c1)ccc1nc(-c3ccc4c(c3)OCO4)c3c(c12)CCC3`, the GI50 is reported as inactive: > 100 µM. `O=C1C=CC(=O)c2c1ccc1c3ccccc3n(Cc3cccc([N+](=O)[O-])c3)c21` was tested, and the GI50 was inactive: > 100 µM. In the case of `COc1ccc(CNc2nc3cc(C(F)(F)F)ccc3nc2-c2ccccc2)cc1OC`, the GI50 is reported as inactive: 5.71 µM. With `N#C/C=C(/NC(=O)Nc1ccccc1)N1CCCC1` the GI50 was inactive: > 62.1 µM. `Cc1cc2c(cc1C)C(=O)C1(C2)Cc2c(C)ccc(C)c2C1=O` (centres undefined) was tested, and the GI50 was inactive: > 100 µM. For `CCOP(=O)(OCC)C1(O)CC(n2cc(C)c(=O)[nH]c2=O)OC1CO` (centres undefined), the GI50 was inactive: > 100 µM. For `Cc1c2c(c(O)c3c(O)cccc13)C(=O)C1(O)C(=O)C(C(=O)NCNc3ccc(C(N)=O)cn3)=C(O)C(N(C)C)C1C2` (centres undefined), the GI50 was inactive: 7.74 µM. In the case of `O=c1[nH]nc(Cc2ccccc2)n1Nc1ccccc1`, the GI50 is reported as inactive: > 100 µM. In the case of `COC(=O)c1c(-c2ccccc2)sc(-c2cccc3ccccc23)c1C(=O)OC`, the GI50 is reported as inactive: 63.4 µM. For `CCc1cccc(C(C)CC)c1NC(=O)C(=O)Cc1nc2ccccc2o1` (centres undefined), the GI50 was inactive: > 50 µM. For `C#CC(O)/C=C/C(O)CCCC(O)CC#CC(O)C#CCCCCC(O)/C=C/CCCC(=O)CCCCCCCCCCCCCCCC(O)C(O)C#CC(=O)O` (centres undefined), the GI50 was inactive: > 25 µM. For `CCOc1ccc(/N=N/c2c(-c3ccccc3)nn(C(=O)CC(=O)Nc3ccccc3Cl)c2-c2ccccc2)cc1`, the GI50 was inactive: 83.4 µM. In the case of `O=C(O)CN1CCNCCN(CP(=O)(O)O)CC1`, the GI50 is reported as inactive: > 24.7 µM. In the case of `Cc1nnc(N)nc1C/C=C/C(C)Sc1ccc(Cl)cc1` (centres undefined), the GI50 is reported as inactive: 9.31 µM. `CN1N=C(Nc2ccccc2)Sc2c1cnn(-c1ccccc1)c2=O` was tested, and the GI50 was inactive: > 100 µM. In the case of `COc1ccc([N+](=O)[O-])cc1[I+]c1cc([N+](=O)[O-])ccc1OC`, the GI50 is reported as inactive: > 100 µM. In the case of `CN(C)CCNS(=O)(=O)N(C)C`, the GI50 is reported as inactive: > 100 µM. For `COc1ccc(/C=C2\CCC(CNc3ccc(OC)cc3)C2=O)cc1` (centres undefined), the GI50 was inactive: > 100 µM. For `CC1(CCc2ccccc2)CC1(Br)Br` (centres undefined), the GI50 was inactive: > 100 µM. For `CCCCc1ccc(N2C(=O)c3cccnc3S2(=O)=O)cc1`, the GI50 was inactive: > 100 µM. With `COc1ccc2c(c1)CC[C@@H]1[C@@H]2CC[C@]2(C)C(=O)/C(=C/c3ccncc3)C[C@@H]12` the GI50 was inactive: 45.4 µM. With `CCOP(=O)(OCC)C(Cc1cn(S(=O)(=O)c2ccc(C)cc2)cn1)C(=O)O` (centres undefined) the GI50 was inactive: > 100 µM. For `OCCOCn1nncc1Cn1ncc2c(O)ncnc21`, the GI50 was inactive: 51.5 µM. With `[B].c1ccc([Si](OCCN2CC2)(c2ccccc2)c2ccccc2)cc1` the GI50 was inactive: 14.6 µM. For `CN(NC(=O)CCCl)C1=NCCN1`, the GI50 was inactive: > 100 µM. With `O=c1c2cccnc2ncn1CCCN1CCCC1` the GI50 was inactive: > 100 µM. In the case of `CN(C)c1ccc(/C=N\NC(=O)c2ccccc2Nc2ccccc2C(=O)N/N=C/c2ccc(N(C)C)cc2)cc1`, the GI50 is reported as inactive: > 100 µM. In the case of `CCOC(=O)COc1cccc2c1C(=O)CCO2`, the GI50 is reported as inactive: > 100 µM. `CSc1nncc(-c2cc3c(c(SC)n2)CCCC3)n1` was tested, and the GI50 was inactive: > 100 µM. In the case of `Cc1ccc(S(=O)(=O)OC(C=O)C(O)C(O)COC(c2ccccc2)(c2ccccc2)c2ccccc2)cc1` (centres undefined), the GI50 is reported as inactive: 15.8 µM. `O=C(CCC(=O)Nc1cccc(C(F)(F)F)c1)CC(=O)c1ccc2ccccc2c1` was tested, and the GI50 was inactive: > 100 µM. `CS(=O)(=O)C(C#N)c1nc2ccccc2nc1Cl` (centres undefined) was tested, and the GI50 was inactive: > 100 µM. For `CC1(C)CNC(c2ccc3c(c2)Cc2cc(C4=NC(C)(C)CN4)ccc2-3)=N1`, the GI50 was inactive: 25.2 µM. `CC(C#N)(c1ccccc1)N(CCc1ccccc1)C(=O)Oc1ccccc1` (centres undefined) was tested, and the GI50 was inactive: > 100 µM. `O=C(CC(c1ccccc1)C1C(=O)NC(=S)NC1=O)c1ccc([N+](=O)[O-])cc1` (centres undefined) was tested, and the GI50 was inactive: > 100 µM. With `COc1cc(/C=C2/Oc3c(OC)cccc3C2=O)ccc1O` the GI50 was inactive: 85.9 µM. In the case of `CCCCCCc1cc2cc(C(=O)Nc3ccccc3F)c(=N)oc2cc1O`, the GI50 is reported as inactive: 19.1 µM. `Nc1nc(NCCCO)cc(=O)[nH]1` was tested, and the GI50 was inactive: > 100 µM. With `O=c1[nH]c(=O)n(COCc2ccccc2)c2ccc([N+](=O)[O-])cc12` the GI50 was inactive: > 100 µM. In the case of `C[C@H]1/C(=C/C(=O)OCCN(C)C)CC[C@H]2[C@H]1C(=O)C[C@H]1C(C)(C)[C@@H](O)CC[C@]21C`, the GI50 is reported as inactive: > 100 µM. In the case of `CCCCCCCCCCCCCCCCOC(=O)c1cc(O)cc(C(=O)OCCCCCCCCCCCCCCCC)c1`, the GI50 is reported as inactive: > 100 µM. With `O=C1O/C(=C(/Cl)c2c3ccccc3cc3ccccc23)c2ccccc21` the GI50 was inactive: 39.7 µM. In the case of `O=c1c(-c2cccc3ccccc23)c(-c2cccc3ccccc23)c1=O`, the GI50 is reported as inactive: 5.77 µM. In the case of `CC(C)(C)n1c(=O)n2n(c1=O)C1c3cccc4cccc(c34)C2C2c3cccc4cccc(c34)C1n1c(=O)n(C(C)(C)C)c(=O)n12`, the GI50 is reported as inactive: > 100 µM. `COC(=O)/C(C#N)=C(/NCCN)Nc1ccccc1` was tested, and the GI50 was inactive: > 100 µM. With `O=C(O)c1ccc(Nc2nc3ccccc3nc2C(=O)O)cc1` the GI50 was inactive: > 100 µM. `O=C(CCc1nnc(S)[nH]1)Nc1cc(Cl)c(Cl)cc1Cl` was tested, and the GI50 was inactive: > 100 µM. For `CC(=O)OCC1OC(c2c(OC(C)=O)cc(C)c3c(=O)cc(/C(C(C)=O)=C(\C)O)oc23)C(OC(C)=O)C(OC(C)=O)C1OC(C)=O` (centres undefined), the GI50 was inactive: > 100 µM. For `O=C(O)/C(=C/C=C/c1ccccc1)c1csc(-c2nc(/C(=C\C=C\c3ccccc3)C(=O)O)cs2)n1`, the GI50 was inactive: 39.1 µM. In the case of `O=C1N(Cl)C(=O)C(c2ccc(Cl)cc2)(c2ccc(Cl)cc2)N1Cl`, the GI50 is reported as inactive: > 100 µM. In the case of `CS/C(=N\C(=S)Nc1ccccc1)Nc1ccccc1`, the GI50 is reported as inactive: 35.8 µM. In the case of `C=CCCCC1SC2=C(CC)CCCN2C1=O` (centres undefined), the GI50 is reported as inactive: > 100 µM. For `O=c1c2cccnc2oc2c(Cl)cc(-c3nnn[nH]3)cc12`, the GI50 was inactive: > 100 µM. With `CC1OC2/C=C\CC(O)C(C)(C)C3CCC(C)C4(O3)O[B-]35OC(C(=O)OC1C2)C1(OC(CCC1C)C(C)(C)C(O)C/C=C\C1CC(OC(=O)C4O3)C(C)O1)O5` (centres undefined) the GI50 was inactive: 3.38 µM. For `CSc1ccc2c(cc1=O)C(NC(=O)c1ccc(C#N)cc1)CCc1cc(O)c(O)c(O)c1-2` (centres undefined), the GI50 was inactive: 41.1 µM. `CC(=O)OC[C@@H](COC(=O)/C=C/c1ccc(O)cc1)OC1OC(CO)C(O)C(O)C1O` (some centres undefined) was tested, and the GI50 was inactive: > 100 µM. In the case of `CC(C)OC(=O)c1cc(NC(=S)OC(C)C)ccc1Cl`, the GI50 is reported as inactive: 19.7 µM. For `O=CN/C=C/c1ccc(O)c(O)c1`, the GI50 was inactive: > 100 µM.
